Measured values reported in PubChem BioAssay AID1508623 (National Center for Advancing Translational Sciences (NCATS), 2021).
In all, about 48,000 compounds went through this assay and about 450 (0.94%) were called active. About 19% were inconclusive and are not listed. Calls follow the shape of the dose curve; as a rule, active = well fitted inhibition curve with a large enough effect; inconclusive = small, poorly fitted or top-dose-only effect; inactive = no such curve, though single readings can be large or run the other way. Some of the results follow.

experiment: Primary qHTS for Identification of Small Molecule Inhibitors of Huntingtin Promoter Activity; conditions: HEK293 HTT promoter firefly luciferase reporter (activity 0% = vehicle and -100% = no light), 24 h; series mostly up to 57.5 µM; activity change, negative = inhibition: at the top concentration; also: nearly all actives have a fitted effect of over 50% in size
Procedure, shortened: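 Quantitative HTS used concentration series of up to 57.5 uM final on HEK293 luciferase reporter cells, 24 h at 37 degrees C. Readout was Dual-Glo firefly luminescence.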

Activity change, negative = inhibition, inactive:
Cn1cc(CCCC(=O)NCc2ccccc2Cl)c2ccccc21 1.88%, CCOC(=O)c1c(NC(=O)CSc2nc(-c3ccccc3)cc(C(F)(F)F)n2)sc(C)c1C -23.2% [at 11.5 µM], CCOc1ccc(OCC)c(Nc2cc(C)nc3nc(-c4ccco4)nn23)c1 -3.8%, CC(=O)N1c2ccc(S(=O)(=O)N3CCCCCC3)cc2CC1C(=O)NCc1ccccc1F (centres undefined) -24.2%, O=C(c1ccc([N+](=O)[O-])cc1)N1CCN(c2ccc(Nc3ccccc3)nn2)CC1 -24.6%, CCOc1ccc(CCNC(=O)CN2C(=O)c3cccnc3Oc3ccc(Cl)cc32)cc1 -6.44%, Cc1ccc(CNc2ccc(-c3nc(-c4ccccn4)no3)cc2[N+](=O)[O-])cc1 29.3%, CCCCN(CCCC)CCNC(=O)c1cn(C)c2ccc(S(=O)(=O)N3CCCC3)cc2c1=O -1.69%, COc1ccc(OC)c(NC(=O)N2c3ccccc3Sc3ccccc32)c1 -35.6%, Cc1ccc(OCc2nc(-c3ccc(C(=O)N4CCN(c5ccccc5)CC4)cc3)oc2C)cc1 56.7% [at 11.5 µM], O=C(NCc1ccccc1Cl)c1ccc(Nc2nc3ccccc3n3nnnc23)cc1 20%, Cc1nn(CCC(=O)N2CCN(c3ccccc3)CC2)c(C)c1S(=O)(=O)N1CCCC1 -26.7%, CCc1cnc2c(c1SCC(=O)N1CCC(C)CC1)c(=O)n(C)c(=O)n2C -20.3%, Cc1c(NC(=O)Nc2ccc(F)c(Cl)c2)c(=O)n(-c2ccccc2)n1C -12.5%, Cc1ccc(-c2nonc2NC(=O)c2ccco2)cc1C -14.9%, Cc1ccc(-c2nc3ccccc3[nH]2)cc1NC(=O)COc1cccc(C)c1C -21.3%, Cc1ccc(CNC(=O)c2ccc3c(c2)N(Cc2cccc(C)c2)C(=O)CS3)cc1 -27.3%, Cc1oc(C)c2c(=O)cc(-c3ccc4c(c3)OCO4)cc(OC(=O)c3ccc(Cl)cc3)c12 -9.23%, Cc1cccc(-c2[nH]ncc2-c2ccc3ncccc3n2)n1 -8.34%, NC(CSCC(=O)O)C(=O)O (centres undefined) 8.93%, CCC(Sc1nc2ccccc2c2nc(CCc3c(C)n[nH]c3C)nn12)C(=O)Nc1ccccc1F (centres undefined) -24.6%, COc1ccccc1Cn1c(CNS(=O)(=O)c2cccc([N+](=O)[O-])c2)nc2cccnc21 -17.7%, Cc1ccccc1C(=O)Nc1ccc(C(=O)N2CCCC(N(C)C)c3ccccc32)cc1 (centres undefined) -23.3%, COc1ccc(C)cc1NC(=O)CCn1nc(C)cc1C 8.35%, O=C(C=CC#Cc1cccc(NS(=O)(=O)c2ccccc2)c1)NO -38.1%, CCN(CC)C(=O)C1=C(C)Nc2nc3ccccc3n2C1c1cccc(Cl)c1 (centres undefined) -2.82%, Cc1ccc(NC(=O)Cn2c(=O)c(CNc3ccccc3)cc3cc4c(cc32)OCCO4)cc1 -33.7%, COC(=O)c1ccc(NC(=O)CSc2n[nH]c(CC(C)C)n2)cc1 -26.4%, COc1ccc(CNC(=O)c2cc3cccc(OC)c3oc2=O)cc1 -10.3%, CCn1cc(C(=O)N2CCN(c3ccc(OC)cc3)CC2)c(=O)c2cc(S(=O)(=O)N(C)C3CCCCC3)ccc21 -7.23%, COc1cccc(CNC(=O)c2nn(C)c3c2CS(=O)(=O)c2ccccc2-3)c1 -17%, CC(=O)O[C@H]1CC[C@@]2(C)C(=CC[C@@H]3[C@@H]2CC[C@]2(C)C(C(C)=O)=CC[C@@H]32)C1 -4.19%, COc1ccc(NC(=O)CSC2=Nc3ccccc3C3=NC(CCC(=O)NCCc4ccccc4)C(=O)N23)c(OC)c1 (centres undefined) -33.4%, O=C(NCc1ccco1)c1ccc2c(c1)N(Cc1ccccc1F)C(=O)c1ccccc1S2=O (centres undefined) -24.2%, Cc1cccc(OC(=O)c2cc(-c3ccc(Cl)cc3)on2)c1C -5.02%, CC(C)CN(CCCNC(=O)c1cn(C)c2ccc(S(=O)(=O)N(C)C3CCCCC3)cc2c1=O)CC(C)C 88.8% [at 11.5 µM], COc1cccc(NC(=O)C(CCSC)NC(=O)C2CCC(C)CC2)c1 (centres undefined) -9.35%, CC(C)[C@@H]1CC[C@@H](C)CC1=O 8.97%, CC(=O)c1cc2ccccc2s1 8.82%, CCOc1ccc(C2=CC(c3cc(Br)ccc3F)n3ncnc3N2)cc1Cl (centres undefined) -11.3%, Cc1nn(CC(=O)Nc2cccc(C(F)(F)F)c2)c(=O)c2nn(-c3ccccc3)c(C)c12 -5.25%, CCOc1ccc(-n2c(=O)c3c(C)c(C)sc3n(Cc3cc(=O)n4cc(Cl)ccc4n3)c2=O)cc1 -22.2%, CN(C(=O)CSc1nc2ccccc2n1Cc1cccc(C(F)(F)F)c1)c1ccccc1 0%, O=C(COC(=O)c1cc(-c2ccccc2)nc2c(Cl)cccc12)c1ccc(F)cc1 -19.6%, Cc1ccc(CCNC(=O)c2cc(-c3ccc(Cl)cc3)n[nH]2)cc1 3.66%, Cc1ccc(Nc2cc(C(=O)NCc3cccs3)c3ccccc3n2)c(C)c1 6.44%, Cc1ccc(NC(=O)c2ccc3[nH]c(C)cc(=O)c3c2)c(C)c1 -10.2%, Cc1ccc(NC(=O)Cc2coc3c(C)c(C)ccc23)cc1Cl -15.8%, COc1ccccc1CN1CCN(C2CCN(C(=O)NC(C)C)CC2)C(=O)C1=O 17.1%, COc1cc2ccccc2cc1C(=O)Nc1ccc2oc(-c3ccccc3)nc2c1 6.2%, CCc1ccc2c(c1)-c1ccccc1S(=O)(=O)N2CC(=O)N1CCC(C)CC1 16%, Cc1ccccc1CNC(=O)CCC(=O)N1CC2CCCN2c2ccccc21 (centres undefined) -26.2%, CC1CCN(S(=O)(=O)c2ccc3c(c2)N(CC(=O)N2CCN(c4ccccc4)CC2)C(=O)CO3)CC1 -24%, CC(=O)c1ccc(NC(=O)Cn2ncc3c(C)n(Cc4ccc(F)cc4)c(C)c3c2=O)cc1 -8.4%, COc1ccccc1C(=O)Nc1nc2nc(C)c(Cc3ccccc3)c(=O)n2[nH]1 -4%, COc1cccc(Cn2c(CNS(=O)(=O)c3ccc4c(c3)CCCC4)nc3cccnc32)c1 -11.1%, CCN(CC)C(=O)CSc1nc2ccccc2c(=O)n1Cc1ccco1 0%, CC[C@@H]1C(=O)N(C)c2cnc(Nc3ccc(C(=O)NC4CCC(N5CCN(CC6CC6)CC5)CC4)cc3OC)nc2N1C(C)C (some centres undefined) -2.78%, CCCc1nccn1S(=O)(=O)c1cc(Br)ccc1OC -13.1%, COc1cc2c(C(=O)N(C)c3cc(Cl)ccc3OC)cn(CC(C)C)c(=O)c2cc1OC -28.9%, CCN(C(=O)Cn1c(=O)n(CC2CCC(C(=O)NC)CC2)c(=O)c2sccc21)c1ccccc1 (centres undefined) -2.52%, Cc1nn(CCCC(=O)Nc2cccc(F)c2)c(=O)c2c1sc1ccccc12 -5.66%, COc1ccc(NC(=O)CN2C(=O)CCc3cc(S(=O)(=O)N4CCOCC4)ccc32)cc1Cl -28.4%, O=C(Nc1ccccc1)c1cn(-c2ccccc2)nc1-c1ccccc1 -28.6%, Cc1cccc(-n2c3nc(=O)[nH]c(=O)c-3cc3c(C)nn(-c4ccccc4)c32)c1C -8.31%, COc1ccccc1NC(=O)CSC1=Nc2ccccc2N=C(c2ccc(F)cc2)C1 -4.86%, COC(=O)c1c(NC(=O)c2nc(SCc3cccc(C)c3)ncc2Cl)sc2c1CCCC2 -7.98%, COc1ccc(-n2nnc(-c3nc(-c4cccs4)no3)c2N)cc1OC 9.35%, CC(=O)N1CCCC1c1nc2ccccc2n1Cc1cccc(Cl)c1 (centres undefined) -5.9%, Cc1ccc(-c2noc(-c3ccc(NCc4ccco4)c([N+](=O)[O-])c3)n2)cc1 10.9%, COc1cc(NC(=O)CC(c2ccc(C)cc2)N2Cc3ccccc3C2=O)cc(OC)c1 (centres undefined) -15.2%, CC1=C(c2ccc(F)cc2)S(=O)(=O)NC1=NCc1ccccc1F -22.5%, COc1ccc(-c2nc(C)c(CCNC(=O)C(=O)Nc3ccccc3C#N)s2)cc1OC 0.202%, COc1ccccc1C(=O)Nc1nc2nc(-c3ccccc3)cc(=O)n2[nH]1 -14.1%, CCc1nn2c(=O)cc(COC(=O)c3ccc(NC(=O)c4cccs4)cc3)nc2s1 -9.9%, Cc1ccc(C)c(CNC(=O)C2CCN(c3nc4ccccc4nc3C(F)(F)F)CC2)c1 23.5%, CCOc1ccccc1CNC(=O)Cn1ncn2nc(-c3cccs3)cc2c1=O -10.8%, COc1ccc(Nc2nnc(-c3cc4c(ccc5ccccc54)oc3=O)s2)cc1 16.7%, CCNC(=O)c1ccc2nc(CCc3ccccc3)oc2c1 18.4%, CCCN(C(=O)c1cn(C)c(=O)c2ccccc12)c1ccccc1C -6.27%, CCOc1ccccc1C(=O)N(Cc1cc(OC)c(OC)c(OC)c1)C1CCS(=O)(=O)C1 (centres undefined) -8.3%, O=C(CN1CCSc2ccccc21)NCc1ccccc1F -6.5%, COc1ccc2nc(N(Cc3cccnc3)C(=O)C3COc4ccccc4O3)sc2c1 (centres undefined) 5.86%, CN(C)CC[C@@H](c1ccc(Br)cc1)c1ccccn1 1.02%, CCCOc1ccc(CN(C(=O)c2cc(=O)c3ccc(C)cc3o2)C2CCS(=O)(=O)C2)cc1 (centres undefined) -15.5%, COc1ccc(N2CCN(S(=O)(=O)CCNC(=O)C3CC(=O)N(c4ccccc4)C3)CC2)cc1 (centres undefined) -8.92%, Cc1nc(CC(=O)Nc2cc(Cl)ccc2C)cs1 -3.51%, COc1cccc(C(=O)CC2(O)C(=O)Nc3ccc(Cl)cc32)c1 (centres undefined) -19.3%, COc1cc(C)ccc1OCCSc1nc(-c2cccc(C)c2)nc2cc(=O)[nH]n12 -10.2%, COc1ccc(C)cc1NC(=O)COCc1cc(-c2cccs2)on1 -15.2%, CCOc1ccc(NC(=O)CSc2nc3c(c(=O)[nH]2)CCCC3)cc1 -5.77%, COc1cc(C2c3c(oc4ccc(F)cc4c3=O)C(=O)N2c2nc(C)c(C)s2)cc(OC)c1OC (centres undefined) 2.42%, O=C(CCS(=O)(=O)c1cc(Br)cc2c1N(C(=O)C1CC1)CC2)N1CCN(c2ccc(F)cc2)CC1 -13.5%, CC1(C)[C@H](O[C@H]2O[C@H](C(=O)O)[C@@H](O)[C@H](O)[C@H]2O[C@@H]2O[C@H](C(=O)O)[C@@H](O)[C@H](O)[C@H]2O)CC[C@@]2(C)[C@H]1CC[C@]1(C)[C@H]2C(=O)C=C2[C@H]3C[C@@](C)(C(=O)O)CC[C@]3(C)CC[C@]21C -3.22%
